# Assay results as given in publication PMC6919601, “Identification of Plasmodium dipeptidyl aminopeptidase allosteric inhibitors by high throughput screening” (PLoS ONE, 2019).
# About 230 (0.21%) of roughly 110,000 compounds showed an effect of 50% or more. The list shows a part of the results.
# Molecular target: DPAP1 (Plasmodium falciparum, UniProt Q8IIJ9)
# Experiment: primary screen, percent inhibition; read by cleavage of a fluorogenic dipeptide substrate; higher = more effect of the substance
# Set-up: species or system P. falciparum D10 trophozoite lysates; single well
# 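Note: 30 min substrate incubation versus DMSO and 10 µM JCP410 controls.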
# Sequence of DPAP1 (Q8IIJ9 whole entry, looked up): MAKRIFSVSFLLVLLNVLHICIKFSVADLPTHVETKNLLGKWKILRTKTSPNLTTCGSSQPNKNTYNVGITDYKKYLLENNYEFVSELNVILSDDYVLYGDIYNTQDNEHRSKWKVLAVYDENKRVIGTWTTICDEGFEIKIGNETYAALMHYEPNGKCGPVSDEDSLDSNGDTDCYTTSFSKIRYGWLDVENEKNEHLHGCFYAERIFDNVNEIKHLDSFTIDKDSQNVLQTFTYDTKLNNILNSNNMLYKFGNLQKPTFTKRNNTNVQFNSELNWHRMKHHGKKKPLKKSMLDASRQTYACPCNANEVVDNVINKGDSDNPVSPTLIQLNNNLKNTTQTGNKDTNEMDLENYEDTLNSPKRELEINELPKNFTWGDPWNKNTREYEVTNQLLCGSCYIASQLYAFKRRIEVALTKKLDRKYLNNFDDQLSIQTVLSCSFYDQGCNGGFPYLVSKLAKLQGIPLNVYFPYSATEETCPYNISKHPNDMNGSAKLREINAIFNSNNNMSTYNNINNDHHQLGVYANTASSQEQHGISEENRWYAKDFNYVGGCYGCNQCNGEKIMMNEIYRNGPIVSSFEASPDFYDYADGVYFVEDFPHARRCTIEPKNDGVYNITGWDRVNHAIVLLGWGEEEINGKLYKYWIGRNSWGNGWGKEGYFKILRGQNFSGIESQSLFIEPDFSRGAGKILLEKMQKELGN
row,Compound,% Inhibition @ 10 uM [%]
1,O=C1C(c2[nH]c3ccccc3c2O)=Nc2ccccc21,-0.864
2,COc1ccc2[nH]c(C(=O)N3CCOCC3)cc2c1,3.65
3,COc1ccc(C2CC(c3ccccc3)=NN2S(=O)(=O)c2ccc(C)cc2)cc1 (stereo not drawn),-2.72
4,Cn1ncc(Cl)c1C(=O)NCc1cc(C(C)(C)C)[nH]n1,-2.45
5,C=CCC1NC2(CCCC2)Cc2cc(OC)c(OC)cc21 (stereo not drawn),3.44
6,O=C(c1cnn2c(C(F)(F)F)cc(-c3ccc(Br)cc3)nc12)N1CCCCCC1,-0.142
7,CCCCCCNC(=O)CC(NS(=O)(=O)c1ccc(F)cc1)c1ccc(OC)cc1 (stereo not drawn),-2.14
8,CCCC(=O)Nc1[nH]nc2nc(C)cc(C)c12,2.18
9,Cc1cc(N2CCNCC2)n2c(nc3ccccc32)c1C#N,-4.32
10,CC1CC(C)CN(C(=O)c2ccc(-c3ccccc3)s2)C1 (stereo not drawn),-2.17
11,Cc1nc2c(-c3ccc(F)cc3)c(C)nn2c(C)c1CC(=O)N1CCOCC1,-6.09
12,COC(=O)c1sccc1NC(=O)c1cc2c(s1)-c1ccccc1S(=O)(=O)C2,2.57
13,CCCCN(C)C(=O)c1sc2ncn(CC)c(=O)c2c1C,4.8
14,O=C(CCCn1c2ccccc2c2cnnc(O)c21)NCc1ccccn1,1.38
15,CCN(CC)CCCNC(=O)Cn1ncn2c(cc3sc(C)cc32)c1=O,4.84
16,COC(=O)C1=C(C)NC(=O)CC1c1ccccc1Cl (stereo not drawn),0.177
17,O=C(Nc1nc2ccc(Cl)cc2s1)c1cccc(F)c1,0.316
18,CCCc1nn(-c2ccc(F)cc2)c(O)c1/C=N/CCCN(CC)CC,-4.91
19,CC1CC(C)CN(C(=O)c2ccc(CS(=O)(=O)Cc3ccc(F)cc3)o2)C1 (stereo not drawn),0.718
20,O=C(NCc1ccc2c(c1)OCO2)c1ccc(CNS(=O)(=O)c2ccccc2)cc1,1.9
21,COc1cccc(C2=N/C(=C\c3ccccc3C(F)(F)F)C(=O)O2)c1,-2.99
22,CCOC(=O)c1c(NC(=S)Nc2ccccc2)sc2c1CCN(C)C2,35.4
23,Clc1ccc(-c2noc3ncnc(N4CCC(c5ccccc5)C4)c23)cc1 (stereo not drawn),-2.19
24,C=Cn1c2ccccc2c2nc3ccccc3nc21,-0.0235
25,CC1CCN(C(=O)C(c2ccccc2)N2Cc3ccccc3C2=O)CC1 (stereo not drawn),0.868
26,O=C(CCc1nnc2n(Cc3ccc(F)cc3)c(=O)c3ccccc3n12)NCCN1CCCC1,4.16

row,Compound,% Inhibition @ 10 uM [%]
1,CC(=O)Nc1ccc(C(=O)/C=C\c2ccccc2)cc1,-6.99
2,CCOc1ccc(CCNC(=O)c2ccc(CS(=O)(=O)c3ccc(Cl)cc3)o2)cc1OCC,0.718
3,CC(C)NC(=O)c1ccccc1NS(=O)(=O)c1ccc(Br)s1,6.7
4,CCCN1CCN(C(=O)c2nc(-c3ccc(Cl)cc3)n3c2CCCCC3)CC1,7.2
5,CCc1nc2ccccc2c(NC(=O)CN2CCCC2)c1C,-4.96
6,O=C(Cn1c(=O)c2cccn2c2cccnc21)NCc1ccc(F)cc1,-7.56
7,CCCS(=O)(=O)N1CCCC(C(=O)NCCCN2CCCC2=O)C1 (stereo not drawn),-0.0542
8,CC(C)c1ccc2c(c1)C(=O)Cc1cc(N)ccc1S2,-8.26
9,Cc1c(CN(C)C(=O)CCn2nc(C(F)(F)F)c(Br)c2C)cnn1C,-0.545
10,COc1ccccc1OCc1nc(-c2ccc(Cl)cc2Cl)no1,-4.51
11,CCn1cc(Cl)c(C(=O)Nc2ccn(C34CC5CC(CC(C5)C3)C4)n2)n1,-1.98
12,COc1ccc(C(=O)N2CCC3(CC2)N=C(c2ccccc2)C(=O)N3)c(OC)c1,1.25
13,CCCCCNC(=O)/C(NC(=O)c1ccccc1)=C(/Sc1ccc(Cl)cc1)c1ccccc1,-2.62
14,Cc1ccc(CNC(=O)Cn2c(=O)c3sccc3n(Cc3ccc(C)cc3)c2=O)cc1,-3.12
15,CCN1CCN(Cc2cc(OC)ccc2OC)CC1,5.42
16,CCCCCCc1nnc(NC(=O)OCC)s1,3.74
17,O=C(CN(C1CCCCC1)S(=O)(=O)c1ccc(Cl)cc1)NCC1CCCO1 (stereo not drawn),-5.4
18,COc1ccc(O)c(C2Oc3ccccc3C3CC(c4cccs4)=NN32)c1 (stereo not drawn),23.3
19,Cc1ccc2nc(-c3ccccc3O)c(C)c(C(=O)O)c2c1,-0.116
20,CCOC(=O)N1CCN(c2c(-c3cc(C)c(C)cc3C)c(=O)c2=O)CC1,-3.05
21,COc1cc2c(cc1OC)C(C(CCC(C)C)C(N)=O)=NC(C)(C)C2 (stereo not drawn),-3.71
22,COc1ccc(COCC(O)CN2CCOCC2)cc1OC (stereo not drawn),-2.15
23,CSc1nc2c(sc3ccccc32)c(=O)n1Cc1ccc2c(c1)OCO2,-1.17
24,CCN(CCN(C)C)Cc1cccc(Cl)c1,-2.56
25,CC(C)OCCCNC(=O)c1cc2c(-c3ccccc3F)nn(C)c2s1,0.317
26,NS(=O)(=O)c1ccc(NC(=S)NC(=O)c2ccco2)cc1,-6.82

row,Compound,% Inhibition @ 10 uM [%]
1,N#Cc1c(N)nc2c(c1-c1ccc(Br)cc1)CCCCCC2,2.47
2,O=c1ccc2ccc(OC3OC(CO)C(O)C(O)C3O)c(O)c2o1 (stereo not drawn),-2.15
3,Cc1cc(-c2ccc(C)c(S(=O)(=O)N(C)CC3COc4ccccc4O3)c2)on1 (stereo not drawn),-5.12
4,COc1ccc(NC(=O)c2cccs2)c([N+](=O)[O-])c1,-3.04
5,O=C(Cc1ccccc1)Nc1nc(=O)c2ccccc2s1,-4.35
6,Cc1ccc(O)c(C(=O)c2cnn(-c3ccccc3)c2)c1,-3.09
7,c1cncc(CN2CCc3ccccc3C2)c1,1.48
8,CN(Cc1ccccc1)S(=O)(=O)c1ccc(-c2cc(C(F)(F)F)no2)s1,1.56
9,O=[N+]([O-])Cc1nnc(O)c2ccccc12,2.55
10,O=C1NN=C2CC3CC(CC4=NNC(=O)C43)C12 (stereo not drawn),-9.37
11,CC(C)C[C@H](NC(=O)c1ccc(-c2ccc(N)cc2)cc1)C(=O)NCC#N,4.33
12,CN(C)c1ccc(C(O)c2cccs2)cc1 (stereo not drawn),2.68
13,CC1CCN(S(=O)(=O)c2ccc(NC(=O)COc3ccccc3Cl)cc2)CC1,-5.58
14,O=c1c2ccccc2nc(CN2CCOCC2)n1-c1ccc([N+](=O)[O-])cc1,7.66
15,CC1(C)CC(=O)c2cnc(NC(=O)C3CCCC3)nc2C1,-6.44
16,CCOC(=O)c1cnc(SCC(=O)c2ccc(Br)cc2)nc1N,1.64
17,C=CC/N=c1\scc(-c2ccccc2)n1CC=C,-8.06
18,Cc1nn(-c2ccccc2)c2sc(C(=O)NCCCO)cc12,-0.28
19,COc1ccc(Cl)cc1N(CC(=O)Nc1ccc(C)cc1C)S(C)(=O)=O,0.324
20,CC(=O)CC1(O)C(=O)N(CN2CCCCC2)c2ccccc21 (stereo not drawn),3.58
21,Nc1c(C(=O)NCCc2ccccc2)nnn1Cc1ccccc1,1.05
22,COc1cc(OC)cc(C(=O)Nc2cccc(Cl)c2C)c1,-4.87
23,COCCN1C2=C(C(=O)CC(C)(C)C2)C(c2cccc(O)c2)C2=C1CC(C)(C)CC2=O,-1.6
24,Cc1c(C(=O)NC(C)c2ccc(Cl)cc2)cnn1-c1ccccc1 (stereo not drawn),3.48
25,CC1CCC(C(C)C)C(OCC(O)CNC(C)(C)C)C1 (stereo not drawn),1.63
26,CCSc1nc2c(c(=O)n1-c1ccc(OC)cc1)C1(CCCCC1)Cc1ccccc1-2,-3.77

row,Compound,% Inhibition @ 10 uM [%]
1,COc1ccc(OC)c(-c2[nH]c3c(=O)n(C)c(=O)n(C)c3c2O)c1,1.25
2,Cc1ccc(S(=O)(=O)c2nc(S(C)(=O)=O)sc2NCCCOC(C)C)cc1,-0.522
3,COc1ccc(CCNC(=O)c2ccncc2)cc1OC,-1.63
4,CC(C)=CCCC(C)CN(C)CCc1ccccn1 (stereo not drawn),1.62
5,CCC(C)NC(=O)CCn1nc(-c2ccc(Cl)cc2)ccc1=O (stereo not drawn),-5.67
6,COc1cc2c(cc1OC)C(C(=O)Nc1ccccn1)C1c3ccccc3CCN1C2=O (stereo not drawn),-5.22
7,COc1ccc(-c2cc(C(=O)O)c3c(-c4ccc(C)cc4)[nH]nc3n2)cc1OC,7.38
8,COc1ccc(-n2c(SCC(=O)O)nc3sc4c(c3c2=O)CC(C)(C)OC4)cc1,0.385
9,CC(O)CN(CC(C)O)CC1CC=CCC1 (stereo not drawn),-0.0494
10,CC1CCN(S(=O)(=O)N2CCCC(C(=O)N3CCN(C)CC3)C2)CC1 (stereo not drawn),-0.546
11,COc1ccc(-c2noc(CCC(=O)N3CCCC3)n2)cc1,1.49
12,CC(C)Nc1nc(N)c(C(=O)C23CC4CC(CC(C4)C2)C3)s1,-2.45
13,C=C(C)CN(CC)C1CCN(CC)CC1,-1.56
14,CCCN1CCC(N2CCN(CC)CC2)CC1,-3.27
15,Cc1ccccc1-c1nc(CS(=O)CC(=O)NCCN2CCN(Cc3ccccc3)CC2)c(C)o1 (stereo not drawn),3.79
16,CCCCN(C)CCNC(=O)c1[nH]c(C)c(C(C)=O)c1C,-2.29
17,COC1CCCCC1NC(Cc1ccccc1)c1ccccc1 (stereo not drawn),5
18,CCCCN1C(=O)C(NC(=O)c2ccccc2OC)(C(F)(F)F)C2=C1CC(C)(C)CC2=O (stereo not drawn),-1.52
19,O=C(O)c1nn(-c2ccccc2)c2c1CCc1occc1-2,-2.91
20,Fc1ccc(CCNCc2c[nH]c3ccccc23)cc1,1.88
21,CC(C)c1ccc(C2c3c(-c4ccccc4O)n[nH]c3C(=O)N2CCO)cc1 (stereo not drawn),-3.12
22,COc1ccc(C)cc1NC(=O)CN(C)S(=O)(=O)c1ccc(C)cc1,7.04
23,CCc1ccc(N2C(=O)CC(NCCc3ccc(OC)cc3)C2=O)cc1 (stereo not drawn),-2.83
24,COc1ccccc1CNc1cnn(C23CC4CC(CC(C4)C2)C3)c(=O)c1Cl,0.738
